Measurements taken from PubChem BioAssay AID686979 (National Center for Advancing Translational Sciences (NCATS), 2013).
About 50,000 (12%) of roughly 420,000 compounds were called active. Inconclusive results, whose numbers are uncertain, are shown with a selection of clear calls. Calls follow the shape of the dose curve; as a rule, active = well fitted inhibition curve with a large enough effect; inconclusive = small, poorly fitted or top-dose-only effect; inactive = flat fitted curve, though single readings scatter. Potencies of inconclusive entries are left out as doubtful fits.

Assay: qHTS for Inhibitors of human tyrosyl-DNA phosphodiesterase 1 (TDP1): qHTS in cells in presence of CPT; also: nearly all actives have a fitted effect of over 55% in size
Details: chicken DT40 Tdp1-/-;hTDP1 cells + 20 nM CPT, ATP luminescence, 48 h; series mostly up to 46.2 µM
Procedure, shortened: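 Cell growth measured by CellTiter-Glo luminescence after a minimum 48 h, 37 C compound exposure with 20 nM CPT in Tdp1-knockout DT40 cells stably expressing hTDP1, seeded 400/well; qHTS titration format.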
Potency is read from the fitted curve at half-maximal effect; tags tell the direction and shape of the fitted curve.

Structure (SMILES) | Potency
COc1ccc(N2CCN(Cc3nc4scc(-c5ccccc5)c4c(=O)[nH]3)CC2)cc1 | inconclusive [inhibitor, partial curve]
CC(C)(O)C1CC[C@@]2(C)C3CCC4[C@@]5(C)CCCC(C)(C)C5C(O)C[C@]4(C)[C@]3(C)CC[C@@H]12 (some centres not stated) | inactive
CC1(C)CC2(CCCN(CC(O)(c3ccccc3)c3ccccc3)C2)CCO1 (configuration not stated) | inconclusive [inhibitor, single point]
CCCCNC(=S)NC(=O)c1ccc([N+](=O)[O-])cc1 | inconclusive [inhibitor, single point]
O=C(CCCN1C(=O)c2ccccc2C1=O)Nc1nccs1 | inconclusive [inhibitor, partial curve]
CCO[C@H]1OC(C(=O)NCc2ccccc2)=C[C@@H](c2cn(C(C)=O)c3ccccc23)[C@@H]1CCCO | inconclusive [inhibitor, single point]
Clc1ccc(CNCCCSc2ncccn2)cc1Cl | inconclusive [inhibitor, partial curve]
COc1cccc(/C=N/NC(=O)CCC(=O)Nc2ccc(Br)cc2)c1 | inactive
Cc1nc(N2CCCC2)c2c(C(=O)Nc3cccc(Cl)c3C)c(C)oc2n1 | inconclusive [inhibitor, single point]
CC1(c2nnc(-c3ccc(F)cc3)o2)CC(c2ccc([N+](=O)[O-])cc2)=NO1 (configuration not stated) | inactive
NNC(=O)c1cc(-c2ccc(O)cc2)nc2ccc(Br)cc12 | inconclusive [inhibitor, partial curve]
Cc1ccc(S(=O)(=O)Nc2ccc3c(c2)n(C)c(=O)n3C)cc1 | active: 10.3 µM
COc1cc2[nH]c(=O)n(Cc3ccc(C(=O)NCc4ccccc4)cc3)c(=O)c2cc1OC | active: 18.4 µM
Cc1ccc(CC(=O)Nc2nc3ccccc3s2)cc1 | inconclusive [inhibitor, partial curve]
CC[C@@]12C(=O)N(c3ccc(C)cc3)C(=O)N1[C@H](c1cccc(C)c1)[C@@H]1C(=O)N(Cc3ccccc3)C(=O)[C@@H]12 | inconclusive [inhibitor, single point]
CCCC(=O)N1CCN(c2nc3c(OC)ccc(Cl)c3s2)CC1 | inconclusive [inhibitor, single point]
COc1ccc(Cl)cc1-n1nnc(-c2nc(-c3ccc4c(c3)OCO4)no2)c1C | inactive
COC(=O)Cn1c2ccccc2c(=O)n1C(C)CBr (configuration not stated) | inactive
COc1ccc(NC(=O)CSc2nc3nc(C)c(Cc4ccc(C)cc4)c(C)n3n2)cc1OC | inconclusive [inhibitor, single point]
C/C(=N/NC(=S)Nc1cccc(C)c1)c1cccc([N+](=O)[O-])c1 | active: 11.6 µM
Cc1ccn2c(Cc3ccccc3)c(-c3ccccc3)nc2c1 | active: 18.4 µM
O=c1c2c(nc3cc(-c4cccc(F)c4)[nH]n13)CCC2 | inactive
COc1ccccc1NC(=O)C(=O)c1cc(C)n(-c2ccccc2F)c1C | inconclusive [inhibitor, single point]
CCOc1ccccc1N(C(=O)c1snc(C(N)=O)c1N)C(C(=O)NC1CCCC1)c1cccs1 (configuration not stated) | inconclusive [inhibitor, single point]

Structure (SMILES) | Potency
COc1cc(C(=O)NCc2ccc(-c3nc4ccccc4o3)cc2)cc(OC)c1OC | inconclusive [inhibitor, single point]
Cc1nc2cnc(N3CCN(C)CC3)nc2n(C2CC2)c1=O | inconclusive [inhibitor, single point]
c1cncc(-c2ccc3ncnc(NC4CCNCC4)c3c2)c1 | inactive
CC(NC(=O)C1CCOCC1)c1nnc2n1CCN(Cc1ccc(F)cc1)CC2 (configuration not stated) | inactive
CCCC1(C(=O)OCC)NC(c2ccc(O)cc2)C2C(=O)N(c3cccc(C(C)=O)c3)C(=O)C21 (configuration not stated) | inactive
COc1cc2c(cc1O)C(SC)=NC(C)(C)C2 | active: 25.9 µM
COc1ccc([N+](=O)[O-])cc1NC(=O)c1cncc(Br)c1 | inactive
CCOC(=O)[C@]12Cc3c(cc(OC)c(OC)c3OC)[C@H]1N(CCC(=O)OC)C(=O)c1cc(OC)ccc12 | inconclusive [inhibitor, single point]
COc1ccc(S(=O)(=O)Cc2ccc(C(=O)NCc3cccnc3)o2)cc1 | inconclusive [inhibitor, single point]
CCCCNC(=O)C[C@@H]1C[C@@]2(C(=O)OC)CC(C)(C)CC=C2N(Cc2ccccc2)C1=O | inconclusive [inhibitor, single point]
Cc1[nH]nc2c1C(c1ccc(Cl)cc1)C(C#N)=C(N)O2 (configuration not stated) | inactive
CCc1ccc(NC(=O)c2cc(S(=O)(=O)N3CCCCCC3)ccc2F)cc1 | inconclusive [inhibitor, single point]
C=CCn1c(CNc2ccccc2)nnc1SCC(=O)N/N=C/c1ccc(O)cc1O | active: 18.4 µM
CN(C)c1ccc(N=C/C=C2\N(C)c3ccccc3C2(C)C)cc1 | active: 5.17 µM
S=C(Nc1ccc(Cl)c(Cl)c1)NC1CCCCC1 | inconclusive [inhibitor, single point]
CCCCN1CC(c2nc3ccccc3n2CCCCOc2ccc(C)cc2C)CC1=O (configuration not stated) | active: 7.31 µM
CCC(C)N(C(=O)CSc1nc2ccc(OC)cc2[nH]1)C1CCS(=O)(=O)C1 (configuration not stated) | inactive
CCn1c(SCC(=O)c2cc(C)n(C)c2C)nnc1-c1ccccc1 | inconclusive [inhibitor, single point]
COc1ccc(CNC(=O)N2CCN(c3cccc(Cl)c3)CC2)cc1OC | inconclusive [inhibitor, single point]
COc1cccc(NC(=O)c2ccc(S(=O)(=O)N3CCCC3)cc2)c1 | inactive
CCOC(=O)[C@H]1[C@H]2COc3ccc(Cl)cc3[C@@H]2N2C(=O)c3cc(C)ccc3NC(=O)[C@@]12C | inconclusive [inhibitor, single point]
CCC/C(C#Cc1ccsc1)=C1/c2ccccc2C(=O)N1c1ccccc1 | inconclusive [inhibitor, single point]
COc1ccc(N2CCN(C(c3ccccc3)c3sc4nc(C)nn4c3O)CC2)cc1 (configuration not stated) | inconclusive [inhibitor, single point]
Cc1cccc(C)c1NC(=O)C(=O)NCCCN1CCOCC1 | inconclusive [inhibitor, single point]

Structure (SMILES) | Potency
CC(=O)c1cccc(NC(=O)C(C)OC(=O)/C=C/c2cccs2)c1 (configuration not stated) | inconclusive [inhibitor, single point]
Cc1ccc(NC(=O)CSCC#N)cc1Cl | inactive
COc1cccc(NC(=O)Nc2nnc(Cc3ccccc3F)s2)c1 | inconclusive [inhibitor, single point]
COc1ccc(S(=O)(=O)NC(=O)C2(C)CCN2C(=O)C2CC2)cc1 (configuration not stated) | inactive
CC(C)c1onc(C(=O)NCc2ccccc2)c1[N+](=O)[O-] | active: 16.4 µM
CC(C)C(=O)N1CCN(c2ccccc2NC(=O)c2ccco2)CC1 | inactive
CC1Cc2ccccc2N1C(=O)COC(=O)Cn1nnc(-c2ccccc2)n1 (configuration not stated) | inconclusive [inhibitor, single point]
CC(=O)c1ccc(Nc2nc(-c3sc(C)nc3C)cs2)cc1 | active: 2.06 µM
COc1cccc(/C=c2/[nH]c(=O)/c(=C\c3cccc(OC)c3OC)[nH]c2=O)c1OC | inconclusive [inhibitor, partial curve]
Cc1ccc(-n2ncc3c(NCCCN4CCOCC4)ncnc32)cc1Cl | inconclusive [inhibitor, single point]
Cc1ccsc1/C=N\NC(=O)c1n[nH]c2c1CCC2 | active: 3.26 µM
Cn1ccc(-c2ccccc2)n1 | inactive
CC12CC(c3ccccc3O1)C(C(=O)N1CCOCC1)C(=O)N2 (configuration not stated) | inactive
COc1ccc(C2/C=C\CN(C(=O)Nc3ccccc3-c3ccccc3)CC(=O)N2Cc2ccc(F)cc2)cc1 (configuration not stated) | active: 23.1 µM
COC(=O)c1ccc(NC(=O)n2ncc3c(C)cccc32)cc1 | inconclusive [inhibitor, single point]
ClC(CCN1CCN(Cc2ccccc2)CC1)c1ccccc1 (configuration not stated) | inconclusive [inhibitor, single point]
Cc1cc(C)c(C)c(S(=O)(=O)N2CCN(c3ncnc4ccccc34)CC2)c1C | active: 10.3 µM
CN(C)c1ccc(/C=C/c2ccnc3ccccc23)cc1N | active: 2.82 µM
CCOC(=O)c1[nH]c2c(c1Cc1ccccc1C)C(=O)CC(c1ccccc1)C2 (configuration not stated) | inconclusive [inhibitor, single point]
COc1ccc(-c2cn3c(n2)sc2cc(C(=O)Nc4ccc(C)c(Cl)c4)ccc23)cc1 | inactive
COc1ccc(C2C3C=CCC(c4cccc(-c5ccc(C)cc5)c4)C3C(=O)N2Cc2ccccc2)cc1Cl (configuration not stated) | active: 23.1 µM
Cc1ccc(-n2nc3c(=O)n(CC(=O)NC4CCCCCC4)nc(C)c3c2C)cc1 | inconclusive [inhibitor, single point]
COc1ccc(OC)c(/C=N/NC(=O)c2nnn(-c3nonc3N)c2-c2cccs2)c1 | inactive
COc1ccccc1CCNC(=O)C(=O)NCC1OCCCN1S(=O)(=O)c1ccc(F)cc1C (configuration not stated) | inconclusive [inhibitor, partial curve, poor fit]
